Test results as given in patent US20240132582A1.

How the values were obtained:
[1] = biological target: mixture of hu-IL-36α and hu-IL-36β; experiment: cell-based or functional assay
[2] = biological target: mixture of hu-IL-36α, hu-IL-36β and hu-IL-36γ; experiment: cell-based or functional assay

B1: mAb2.10/mAb6_2.7 multispecific common light chain antibody (bispecific antibody, human IgG1, lambda)
heavy 1: ELQLQESGPGLVKPSETLSLTCTVSGGSISDSSYYWGWIRQPPGKGLEWIGSIYYTGETYYAPSLKSRVTISVDTSKNQFSLKLSSVTAADTAVYYCARVRYGVGVPRHFDPWGQGTLVTVSSASTKGPSVFPLAPSSKSTSGGTAALGCLVKDYFPEPVTVSWNSGALTSGVHTFPAVLQSSGLYSLSSVVTVPSSSLGTQTYICNVNHKPSNTKVDKKV[human IgG1 Fc with changes cut from this listing]
heavy 2: ELQLQESGPGLVKPSETLSLTCTVSGGSITASNTYWGWIRQPPGKGLEWIGSIDYTGSTYYNPSLKSRVTISVDTSKNQFSLKLSSVTAADTAVYYCATGKYYETYLGFDVWGQGTLVTVSS[human IgG1 constant region with N297G T366W (EU numbers) cut from this listing]
light: ESVLTQPPSVSGAPGQRVTISCTGSSSNIGAHYDVHWYQQLPGTAPKLLIYGNDNRPSGVPDRFSGSKSGTSASLAITGLQAEDEADYYCQSYDYSLSGYVFGGGTKLTVLGQPKAAPSVTLFPPSSEELQANKATLVCLISDFYPGAVTVAWKADSSPVKAGVETTTPSKQSNNKYAASSYLSLTPEQWKSHKSYSCQVTHEGSTVEKTVAPTECS
Which results are given for B1?
IC50, IL-8 secretion by primary adult human keratinocytes stimulated by a mixture of hu-IL-36α and hu-IL-36β [1]: 0.44 nM; IC50, IL-8 secretion by primary adult human keratinocytes stimulated by a mixture of hu-IL-36α, hu-IL-36β and hu-IL-36γ [2]: 1.16 nM
